Assay results: PubChem BioAssay (NCATS)
This list was built around the results that the source calls inconclusive (neither active nor inactive); the mix of calls is not that of the screen. No potency is given beside an inconclusive call; the fits are too rough. Calls of active or inactive are those of the source. The call rests on the fitted dose curve; in most records, active means well fitted activation curve with a large enough effect; inconclusive means small, poorly fitted or top-dose-only effect; inactive means no such curve, though single readings can be large or run the other way.

biological target: Rap guanine nucleotide exchange factor 3 (Homo sapiens) (UniProt O95398); assay: Confirmatory qHTS for agonist of cAMP-regulated guanine nucleotide exchange factor 3 (EPAC1) (AID 1645881); conditions: EPAC1 Rap1B BODIPY-GDP exchange fluorescence; activation: at 154 µM (top of the series), 100% = cAMP control response; further: nearly all actives have a fitted effect of over 75% in size
Chain of UniProt O95398 (O95398 whole entry, looked up): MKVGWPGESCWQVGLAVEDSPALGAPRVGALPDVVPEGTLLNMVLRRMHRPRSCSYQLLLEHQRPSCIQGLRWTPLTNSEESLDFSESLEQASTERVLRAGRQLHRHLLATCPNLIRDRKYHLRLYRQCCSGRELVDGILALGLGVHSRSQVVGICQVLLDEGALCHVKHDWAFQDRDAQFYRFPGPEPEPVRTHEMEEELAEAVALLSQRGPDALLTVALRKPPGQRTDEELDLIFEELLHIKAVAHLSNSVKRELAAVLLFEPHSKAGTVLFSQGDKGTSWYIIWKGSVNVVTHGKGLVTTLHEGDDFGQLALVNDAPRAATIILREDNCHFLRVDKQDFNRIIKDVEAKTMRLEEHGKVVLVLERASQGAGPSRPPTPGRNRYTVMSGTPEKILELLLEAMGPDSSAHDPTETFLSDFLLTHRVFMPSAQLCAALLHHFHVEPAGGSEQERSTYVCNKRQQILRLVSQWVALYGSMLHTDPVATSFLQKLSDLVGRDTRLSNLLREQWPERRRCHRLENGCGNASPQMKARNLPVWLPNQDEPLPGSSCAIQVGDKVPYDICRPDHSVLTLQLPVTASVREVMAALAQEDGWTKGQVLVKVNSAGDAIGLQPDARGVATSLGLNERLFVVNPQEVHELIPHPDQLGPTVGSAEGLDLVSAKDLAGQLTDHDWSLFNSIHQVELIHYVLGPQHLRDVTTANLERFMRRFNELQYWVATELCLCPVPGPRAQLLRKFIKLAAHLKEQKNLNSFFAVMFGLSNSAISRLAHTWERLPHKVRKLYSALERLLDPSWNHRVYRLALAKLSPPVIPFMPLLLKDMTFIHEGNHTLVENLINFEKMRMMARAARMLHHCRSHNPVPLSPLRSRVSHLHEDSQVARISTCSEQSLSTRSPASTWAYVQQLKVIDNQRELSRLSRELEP
Potency means the concentration at half of the fitted maximal effect; tags describe the fitted curve by direction and shape.

| SMILES | Potency |
| --- | --- |
| Oc1ccc(Br)cc1CNc1cccc2cccnc12 | inconclusive [activator, partial curve] |
| CCN1C(=O)c2cccc3c(N)ccc(c23)C1=O | active: 100 µM |
| CC(NC1=CC(=O)c2cccnc2C1=O)C(O)c1ccccc1 (stereo unspecified) | inconclusive [activator, partial curve, poor fit] |
| CCOC(=O)[C@H]1[C@H]2COc3ccc(C)cc3[C@@H]2N2C(=O)c3ccc(C)cc3NC(=O)[C@@]12C | inconclusive [activator, partial curve, poor fit] |
| N#C/C(=C\c1ccc(N2CCOCC2)o1)c1nc2ccccc2[nH]1 | inconclusive [activator, partial curve, poor fit] |
| COc1ccccc1N1CCN(C(=O)c2ccc(S(=O)(=O)N3CCCC3)cc2)CC1 | inconclusive [activator, single point] |
| Cc1ccnc(NCc2cccc3ccccc23)c1 | inconclusive [activator, partial curve, poor fit] |
| Cc1ccc2oc(=O)c(/C=C(\O)c3ccco3)nc2c1 | active: 89.1 µM |
| COc1cc(C2CC(=O)Oc3cc(C)c(Cl)c(C)c32)cc(OC)c1OC (stereo unspecified) | inconclusive [activator, full curve, poor fit] |

biological target: Rap guanine nucleotide exchange factor 4 (Homo sapiens) (UniProt Q8WZA2); assay: Confirmatory qHTS for agonist of cAMP-regulated guanine nucleotide exchange factor 4 (EPAC2) (AID 1645884); conditions: EPAC2 GEF activity, Rap1B-BODIPY-GDP fluorescence; activation: at 154 µM (top of the series), percent relative to cAMP agonist control;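 further: nucleotide exchange releases bodipy-GDP from Rap1 and this lowers its fluorescence; nearly all actives have a fitted effect of over 65% in size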
Chain of UniProt Q8WZA2 (Q8WZA2 whole entry, looked up): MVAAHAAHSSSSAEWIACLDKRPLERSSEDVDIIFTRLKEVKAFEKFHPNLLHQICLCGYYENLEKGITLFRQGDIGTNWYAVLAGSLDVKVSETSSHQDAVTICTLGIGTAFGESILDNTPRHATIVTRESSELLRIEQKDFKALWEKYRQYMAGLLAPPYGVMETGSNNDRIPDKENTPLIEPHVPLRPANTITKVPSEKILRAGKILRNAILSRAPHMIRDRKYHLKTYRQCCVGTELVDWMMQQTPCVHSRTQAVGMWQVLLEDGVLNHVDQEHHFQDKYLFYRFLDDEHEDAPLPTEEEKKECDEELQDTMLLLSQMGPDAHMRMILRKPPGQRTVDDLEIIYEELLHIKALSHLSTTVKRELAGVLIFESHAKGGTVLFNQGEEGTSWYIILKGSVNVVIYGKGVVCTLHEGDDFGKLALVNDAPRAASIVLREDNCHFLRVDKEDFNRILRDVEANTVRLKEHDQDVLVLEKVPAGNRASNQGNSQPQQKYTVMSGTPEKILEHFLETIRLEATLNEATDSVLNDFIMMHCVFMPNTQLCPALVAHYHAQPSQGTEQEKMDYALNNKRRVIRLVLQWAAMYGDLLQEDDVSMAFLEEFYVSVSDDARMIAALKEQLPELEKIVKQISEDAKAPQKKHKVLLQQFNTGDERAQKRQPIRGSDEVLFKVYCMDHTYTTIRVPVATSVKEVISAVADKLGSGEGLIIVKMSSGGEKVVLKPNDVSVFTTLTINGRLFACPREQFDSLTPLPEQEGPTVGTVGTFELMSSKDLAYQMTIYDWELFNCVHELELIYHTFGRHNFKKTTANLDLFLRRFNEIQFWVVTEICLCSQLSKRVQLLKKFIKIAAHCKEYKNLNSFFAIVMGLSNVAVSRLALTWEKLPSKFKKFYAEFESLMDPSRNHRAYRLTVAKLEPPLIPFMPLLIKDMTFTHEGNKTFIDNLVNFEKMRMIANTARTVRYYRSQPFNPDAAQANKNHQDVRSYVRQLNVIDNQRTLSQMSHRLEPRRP

| SMILES | Potency |
| --- | --- |
| CN1c2ccccc2C(C)(C)C12C=Nc1c(cc(N3CCOCC3)c3ccccc13)O2 (stereo unspecified) | inconclusive [activator, single point] |
| CCN1CCN(C2=CC3=CC(=C(C#N)C#N)CCC3CC2)CC1 (stereo unspecified) | active: 100 µM |
| Cc1ccc2nc(-c3ccccc3)c(Cc3cccc(Cl)c3)n2c1 | inconclusive [activator, partial curve, poor fit] |
| COc1ccc(OC)c(/C=C/c2nc3ccccc3nc2C)c1 | active: 79.3 µM |
| Cc1ccc(S(=O)(=O)/N=C2\C=C(NS(=O)(=O)c3ccccc3)C(=O)c3ccccc32)cc1 | inconclusive [activator, partial curve, poor fit] |
| CC(=O)c1sc2nc(-c3ccco3)ccc2c1N | inactive |
| CN1c2ccsc2/C(=N/Nc2ccccc2)CS1(=O)=O | inconclusive [activator, partial curve] |
| Cc1cc(N(C)C)c(C)cc1/C=C/c1ccnc2ccccc12 | inconclusive [activator, single point] |
| CC(C)CC(=NNC(=O)c1ccncc1)c1cc(Cl)ccc1O | active: 100 µM |
| O=C1c2ccccc2S(=O)(=O)c2cc(N3CCC(C(=O)N4CCCCC4)CC3)ccc21 | active: 100 µM |
| CN(C)c1ccc(/C=C/c2ccnc3c(Cl)cccc23)cc1 | inconclusive [activator, full curve] |
| Cc1nc2c(C(=O)NCCc3ccc(Cl)cc3)c[nH]n2c(=O)c1Cc1ccccc1F | inactive |
| CCCN(CCC)c1ccc(/C=C/c2ccnc3ccccc23)cc1 | inconclusive [activator, single point] |
| COC(=O)C1=NN(c2ccc(C)cc2)C2(S1)SC(C(C)=O)=C(C)N2c1ccccc1 (stereo unspecified) | active: 100 µM |
| CCCC1C2CN(C(C)C)CC=C2C(C#N)=C(N)C1(C#N)C#N (stereo unspecified) | active: 56.2 µM |
| O=C(Cc1ccccc1)Nn1c(O)c(/C=C2\C=Nc3ccccc32)sc1=S | active: 100 µM |
| CC(C)(C)C1COc2ccccc2N1C(=O)c1ccccc1Cl (stereo unspecified) | inconclusive [activator, partial curve, poor fit] |
| CCOc1cc(/C=C2\CCCc3c2nc2ccccc2c3C(=O)O)ccc1OC | active: 112 µM |
| O=c1oc2cc(O)ccc2cc1-c1nc2ccccc2o1 | active: 112 µM |

| SMILES | Potency |
| --- | --- |
| COC(=O)c1sc(S(=O)(=O)N2CCCCC2C)c(C(=O)OC)c1C (stereo unspecified) | inconclusive [activator, partial curve, poor fit] |
| COc1cccc(C2=NN(C(=O)c3ccco3)C(c3ccco3)C2)c1 (stereo unspecified) | inconclusive [activator, partial curve] |
| COc1ccc(C(=O)N(CCc2ccccc2)Cc2cccs2)c(OC)c1 | inconclusive [activator, partial curve, poor fit] |
| Nc1ncnc2c1nc(Br)n2[C@@H]1O[C@@H]2COP(=O)(O)O[C@H]2[C@H]1O | active: 2.24 µM |
| O=C(NCc1ccc(OC(F)(F)F)cc1)c1cccc2c1C(=O)c1ccc(N3CCCC3)cc1S2(=O)=O | inconclusive [activator, single point] |
| CCOC(=O)/C(C#N)=C\c1ccc(N2CCN(C/C=C/c3ccccc3)CC2)cc1 | active: 100 µM |
| COc1ccc(CN2C(=O)c3cccnc3C2O)cc1 (stereo unspecified) | inconclusive [activator, single point] |
| COc1ccc(NC(=O)c2csc3c2CCCCC3)c(OC)c1 | inactive |
| CN(C)/C=C/c1onc(-c2c(Cl)cccc2Cl)c1C#N | inconclusive [activator, partial curve] |
| CCOC(=O)c1c(CSc2ccccc2)n(C)c2cc(Br)c(OCC(O)CNC(CO)(CO)CO)cc12 (stereo unspecified) | active: 89.1 µM |
| Oc1ccc(Br)cc1CNc1cccc2cccnc12 | inconclusive [activator, partial curve] |
| CCN1C(=O)c2cccc3c(N)ccc(c23)C1=O | active: 100 µM |
| CC(NC1=CC(=O)c2cccnc2C1=O)C(O)c1ccccc1 (stereo unspecified) | inconclusive [activator, partial curve, poor fit] |
| CCOC(=O)[C@H]1[C@H]2COc3ccc(C)cc3[C@@H]2N2C(=O)c3ccc(C)cc3NC(=O)[C@@]12C | active: 112 µM |
| N#C/C(=C\c1ccc(N2CCOCC2)o1)c1nc2ccccc2[nH]1 | active: 112 µM |
| COc1ccccc1N1CCN(C(=O)c2ccc(S(=O)(=O)N3CCCC3)cc2)CC1 | inconclusive [activator, single point] |
| Cc1ccnc(NCc2cccc3ccccc23)c1 | inconclusive [activator, partial curve, poor fit] |
| Cc1ccc2oc(=O)c(/C=C(\O)c3ccco3)nc2c1 | active: 100 µM |
